Laboratory results taken from publication PMC3594291.
No constants are given. Whether binding was seen depends on the method and setting. Binding seen in cells or lysates may run through a third protein. Some entries that bind do so weakly or less than the wild type. Tags and fused reporters may be left off the sequences shown.

By UniProt entry, the sequences of proteins in these tests, tags left out.
UniProt Q9Y6R4: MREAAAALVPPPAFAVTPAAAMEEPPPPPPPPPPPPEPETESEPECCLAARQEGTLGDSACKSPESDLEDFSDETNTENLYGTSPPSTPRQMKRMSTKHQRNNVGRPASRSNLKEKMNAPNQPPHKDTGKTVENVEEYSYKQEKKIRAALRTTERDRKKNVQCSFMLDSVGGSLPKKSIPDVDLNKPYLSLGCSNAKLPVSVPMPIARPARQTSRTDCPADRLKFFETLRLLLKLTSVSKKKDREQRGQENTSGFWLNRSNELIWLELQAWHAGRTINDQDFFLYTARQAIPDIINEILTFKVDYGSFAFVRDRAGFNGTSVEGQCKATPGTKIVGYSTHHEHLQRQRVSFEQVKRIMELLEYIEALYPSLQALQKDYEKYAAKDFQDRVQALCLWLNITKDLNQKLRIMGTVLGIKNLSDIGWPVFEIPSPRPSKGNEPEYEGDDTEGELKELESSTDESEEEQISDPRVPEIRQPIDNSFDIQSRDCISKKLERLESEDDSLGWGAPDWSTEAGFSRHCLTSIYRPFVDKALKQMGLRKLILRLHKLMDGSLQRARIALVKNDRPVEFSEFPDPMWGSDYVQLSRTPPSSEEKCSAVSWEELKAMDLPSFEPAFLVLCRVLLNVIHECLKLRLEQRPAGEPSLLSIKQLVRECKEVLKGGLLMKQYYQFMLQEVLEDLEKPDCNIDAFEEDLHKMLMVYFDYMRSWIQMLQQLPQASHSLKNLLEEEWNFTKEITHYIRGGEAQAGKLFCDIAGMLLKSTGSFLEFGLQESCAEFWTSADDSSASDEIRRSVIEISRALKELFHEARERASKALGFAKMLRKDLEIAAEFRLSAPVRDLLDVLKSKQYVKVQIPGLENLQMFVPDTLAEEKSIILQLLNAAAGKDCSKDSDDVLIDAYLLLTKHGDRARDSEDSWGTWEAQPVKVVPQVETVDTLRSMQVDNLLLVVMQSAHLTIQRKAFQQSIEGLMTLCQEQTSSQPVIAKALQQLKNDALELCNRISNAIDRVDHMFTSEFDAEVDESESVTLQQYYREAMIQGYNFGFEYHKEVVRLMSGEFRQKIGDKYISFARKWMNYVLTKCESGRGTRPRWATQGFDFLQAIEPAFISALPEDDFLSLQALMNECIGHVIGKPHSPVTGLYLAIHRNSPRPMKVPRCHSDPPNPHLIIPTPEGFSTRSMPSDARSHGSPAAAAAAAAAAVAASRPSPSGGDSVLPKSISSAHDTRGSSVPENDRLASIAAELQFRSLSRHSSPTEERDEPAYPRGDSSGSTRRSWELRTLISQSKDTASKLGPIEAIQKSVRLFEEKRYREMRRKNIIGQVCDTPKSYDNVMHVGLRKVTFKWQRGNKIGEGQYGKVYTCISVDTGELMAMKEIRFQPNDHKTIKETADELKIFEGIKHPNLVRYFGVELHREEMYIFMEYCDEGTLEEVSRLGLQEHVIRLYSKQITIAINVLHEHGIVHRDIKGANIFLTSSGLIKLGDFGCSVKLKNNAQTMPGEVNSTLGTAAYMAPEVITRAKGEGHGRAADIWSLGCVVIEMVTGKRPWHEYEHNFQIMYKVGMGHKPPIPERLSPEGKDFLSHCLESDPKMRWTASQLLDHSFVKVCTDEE
UniProt O14733: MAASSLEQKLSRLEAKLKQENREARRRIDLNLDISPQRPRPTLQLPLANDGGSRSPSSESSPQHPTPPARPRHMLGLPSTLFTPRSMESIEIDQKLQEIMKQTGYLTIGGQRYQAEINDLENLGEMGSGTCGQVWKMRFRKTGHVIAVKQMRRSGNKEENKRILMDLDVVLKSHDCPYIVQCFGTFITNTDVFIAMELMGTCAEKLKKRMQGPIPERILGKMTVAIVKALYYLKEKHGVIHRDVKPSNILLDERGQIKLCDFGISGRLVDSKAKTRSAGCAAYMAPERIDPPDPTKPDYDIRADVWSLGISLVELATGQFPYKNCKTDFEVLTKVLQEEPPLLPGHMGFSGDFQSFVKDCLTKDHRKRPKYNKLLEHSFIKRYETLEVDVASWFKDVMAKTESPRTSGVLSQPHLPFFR

T1: HA-GADD45α (UniProt P24522)
T1 sequence: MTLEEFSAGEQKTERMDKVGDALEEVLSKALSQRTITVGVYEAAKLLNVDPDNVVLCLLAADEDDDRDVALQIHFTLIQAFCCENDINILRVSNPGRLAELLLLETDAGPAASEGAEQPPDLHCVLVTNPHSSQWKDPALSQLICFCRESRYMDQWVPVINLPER

B1: MKK4 (enzyme, UniProt P45985 1-399)
chain: MAAPSPSGGGGSGGGSGSGTPGPVGSPAPGHPAVSSMQGKRKALKLNFANPPFKSTARFTLNPNPTGVQNPHIERLRTHSIESSGKLKISPEQHWDFTAEDLKDLGEIGRGAYGSVNKMVHKPSGQIMAVKRIRSTVDEKEQKQLLMDLDVVMRSSDCPYIVQFYGALFREGDCWICMELMSTSFDKFYKYVYSVLDDVIPEEILGKITLATVKALNHLKENLKIIHRDIKPSNILLDRSGNIKLCDFGISGQLVDSIAKTRDAGCRPYMAPERIDPSASRQGYDVRSDVWSLGITLYELATGRFPYPKWNSVFDQLTQVVKGDPPQLSNSEEREFSPSFINFVNLCLTKDESKRPKYKELLKHPFILMYEERAVEVACYVCKILDQMPATPSSPMYVD
B2: MKK3 (enzyme, UniProt P46734 1-347)
chain: MESPASSQPASMPQSKGKSKRKKDLRISCMSKPPAPNPTPPRNLDSRTFITIGDRNFEVEADDLVTISELGRGAYGVVEKVRHAQSGTIMAVKRIRATVNSQEQKRLLMDLDINMRTVDCFYTVTFYGALFREGDVWICMELMDTSLDKFYRKVLDKNMTIPEDILGEIAVSIVRALEHLHSKLSVIHRDVKPSNVLINKEGHVKMCDFGISGYLVDSVAKTMDAGCKPYMAPERINPELNQKGYNVKSDVWSLGITMIEMAILRFPYESWGTPFQQLKQVVEEPSPQLPADRFSPEFVDFTAQCLRKNPAERMSYLELMEHPFFTLHKTKKTDIAAFVKEILGEDS
B3: MKK6 (enzyme, UniProt P52564 1-334)
chain: MSQSKGKKRNPGLKIPKEAFEQPQTSSTPPRDLDSKACISIGNQNFEVKADDLEPIMELGRGAYGVVEKMRHVPSGQIMAVKRIRATVNSQEQKRLLMDLDISMRTVDCPFTVTFYGALFREGDVWICMELMDTSLDKFYKQVIDKGQTIPEDILGKIAVSIVKALEHLHSKLSVIHRDVKPSNVLINALGQVKMCDFGISGYLVDSVAKTIDAGCKPYMAPERINPELNQKGYSVKSDIWSLGITMIELAILRFPYDSWGTPFQQLKQVVEEPSPQLPADKFSAEFVDFTSQCLKKNSKERPTYPELMQHPFFTLHESKGTDVASFVKLILGD

Molecular target: T1, HA-GADD45α
Experiment: co-IP; anti-HA antibody with protein A/G plus agarose, overnight at 4°C, on 2 mg lysate of HCT116 (HA-GADD45α) cells treated with NiCl2 (1 mM) for 3 hrs; IP buffer 25 mM Tris-HCl pH 7.5, 1 mM DTT, 30 mM MgCl2, 40 mM NaCl, 0.5% NP-40; western blot of the precipitate

Molecule | binding
MTK1/MEKK4 (from UniProt Q9Y6R4 1-1608) (enzyme) | binds
MKK7 (from UniProt O14733 1-419) (enzyme) | no binding
B1 | no binding
B2 | no binding
B3 | no binding
